Laboratory results published in the supplement of paper PMC12009370.
The other results are listed elsewhere or left out. Many values rest on one well or one pass, so single values are uncertain.
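For drug sensitivity score (DSS) in combination with GSK2830371 in this document: neuroblastoma cells in 384-well plates, each compound at five concentrations, luminescence read-out, DSS derived from fitted concentration-response curve combining IC50 with minimum and maximum inhibition.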

What follows are molecules tested on IMR-32 (assay: drug sensitivity score (DSS) in combination with SL-176 (DSS (score)); higher = more cytotoxic; extreme values may be limits of the assay). Conditions: 72 h; co-treatment: SL-176 11.2 uM (IC25 in IMR-32).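 Also: cells in 384-well plates, luminescence read-out, each screening drug at five concentrations, DSS derived from the fitted concentration-response curve combining IC50 with minimum and maximum inhibition.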
Work on `COc1cccc2c1C(=O)c1c(O)c3c(c(O)c1C2=O)C[C@@](O)(C(=O)CO)C[C@@H]3O[C@H]1C[C@H](N)[C@@H](O)[C@H](C)O1` [Epirubicin] yielded a drug sensitivity score of 24.8.
In the case of `Cc1cc(-c2nc(-c3ccc(OC(F)(F)F)cc3)no2)nn1Cc1ccnc(N2CCN(C3CC3)CC2)c1`, the drug sensitivity score was 13.9.
`CCN(CC)CCNC(=O)c1c(C)[nH]c(/C=C2\C(=O)Nc3ccc(-c4csc(-c5ccccc5)n4)cc32)c1C` [Amcasertib] showed a drug sensitivity score of 15.
Molecule `COc1cc(Nc2ncc(F)c(Nc3ccc4c(n3)N(COP(=O)(O)O)C(=O)C(C)(C)O4)n2)cc(OC)c1OC` [Fostamatinib] has a drug sensitivity score of 2.3.

These molecules were tested on SK-N-AS (assay: drug sensitivity score (DSS) in combination with GSK2830371 (DSS (score)); neuroblastoma lines; SL-176 and GSK2830371 are WIP1 inhibitors; higher = more cytotoxic; extreme values may be limits of the assay). Conditions: 72 h; co-treatment: GSK2830371 at IC25 in IMR-32.
In the case of `S=c1[nH]cnc2nc[nH]c12` [Mercaptopurine], the drug sensitivity score was 7.2.
`CC[C@H](C)C(=O)O[C@H]1C[C@H](O)C=C2C=C[C@H](C)[C@H](CC[C@@H](O)C[C@@H](O)CC(=O)O)[C@H]21` [Pravastatin] gave a drug sensitivity score of 0.
`NC(=S)N/N=C/c1ncccc1N` [Triapine] was tested, and the drug sensitivity score was 1.1.
Molecule `CC[C@H](Nc1ncnc2[nH]cnc12)c1nc2cccc(F)c2c(=O)n1-c1ccccc1` [Idelalisib] has a drug sensitivity score of 0.2.
`CC1(C)CNc2cc(NC(=O)c3cccnc3NCc3ccncc3)ccc21` [Motesanib] showed a drug sensitivity score of 0.
Work on `Cc1cnc(-c2ccccc2C(C)C)nc1NCc1ccc(-n2ccnn2)cc1` yielded a drug sensitivity score of 0.
Molecule `Cc1ccc(-n2nc(C(C)(C)C)cc2NC(=O)Nc2ccc(OCCN3CCOCC3)c3ccccc23)cc1` [Doramapimod] has a drug sensitivity score of 1.8.
For `COc1cc2nccc(Oc3ccc(NC(=O)Nc4cc(C)on4)c(Cl)c3)c2cc1OC` [Tivozanib], the drug sensitivity score was 1.6.
